Results published in PMC3174212, “A Negative Feedback Loop That Limits the Ectopic Activation of a Cell Type–Specific Sporulation Sigma Factor of Bacillus subtilis” (PLoS Genetics, 2011).
These are yes or no findings as the source states them, for the method shown. For some assays here: In cells and extracts the contact can be indirect. Some entries that bind do so weakly or less than the wild type. Where a sequence is shown, tags or fusion partners need not be part of it.

T1: σ^F fused to the GAL4 binding domain (Bacillus subtilis) (UniProt P07860)
T1 sequence: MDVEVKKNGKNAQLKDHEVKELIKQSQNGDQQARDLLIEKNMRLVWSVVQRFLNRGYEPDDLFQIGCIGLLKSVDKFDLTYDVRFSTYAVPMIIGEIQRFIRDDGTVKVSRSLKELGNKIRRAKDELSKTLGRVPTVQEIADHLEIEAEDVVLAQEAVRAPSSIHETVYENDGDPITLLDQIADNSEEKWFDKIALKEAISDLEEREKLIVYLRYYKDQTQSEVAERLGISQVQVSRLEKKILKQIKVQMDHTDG

T2: σ^FE39N fused to the GAL4 binding domain (Bacillus subtilis) (UniProt P07860)
T2 sequence: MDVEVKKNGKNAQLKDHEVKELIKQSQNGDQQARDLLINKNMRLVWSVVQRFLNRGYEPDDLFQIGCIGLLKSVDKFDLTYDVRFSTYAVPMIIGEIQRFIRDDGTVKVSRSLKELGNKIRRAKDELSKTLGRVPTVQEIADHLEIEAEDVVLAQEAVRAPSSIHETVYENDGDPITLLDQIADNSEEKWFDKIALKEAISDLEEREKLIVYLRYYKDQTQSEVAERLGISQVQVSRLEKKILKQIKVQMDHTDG

T3: σ^G fused to the GAL4 binding domain (Bacillus subtilis) (UniProt P19940)
T3 sequence: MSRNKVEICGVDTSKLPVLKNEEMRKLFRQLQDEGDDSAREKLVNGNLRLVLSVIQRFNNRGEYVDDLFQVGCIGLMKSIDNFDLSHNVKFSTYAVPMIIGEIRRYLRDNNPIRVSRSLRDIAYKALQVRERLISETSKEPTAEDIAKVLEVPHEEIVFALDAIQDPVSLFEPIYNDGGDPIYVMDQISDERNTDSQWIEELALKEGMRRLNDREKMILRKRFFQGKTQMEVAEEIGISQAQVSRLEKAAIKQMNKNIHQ

T4: σ^GN45A fused to the GAL4 binding domain (Bacillus subtilis) (UniProt P19940)
T4 sequence: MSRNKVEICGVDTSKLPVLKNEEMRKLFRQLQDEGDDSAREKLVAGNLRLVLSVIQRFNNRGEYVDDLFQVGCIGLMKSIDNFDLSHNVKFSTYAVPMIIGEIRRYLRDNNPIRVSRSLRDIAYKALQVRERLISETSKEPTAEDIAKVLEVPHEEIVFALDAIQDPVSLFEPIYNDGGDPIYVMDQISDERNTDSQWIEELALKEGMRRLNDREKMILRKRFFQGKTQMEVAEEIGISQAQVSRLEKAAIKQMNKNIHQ

T5: GST-σ^G (Bacillus subtilis, UniProt P19940 1-260)
T5 construct: RNA polymerase sigma-G factor of Bacillus subtilis; coding region of sigG amplified with primers sigG2016D and sigG2964R from pMS45 and cloned into pGex4T-3; also called GST-σ^Gwt; GST-σ^G fusion protein (wt); not shown: GST, N-terminal, kept
T5 sequence (looked up): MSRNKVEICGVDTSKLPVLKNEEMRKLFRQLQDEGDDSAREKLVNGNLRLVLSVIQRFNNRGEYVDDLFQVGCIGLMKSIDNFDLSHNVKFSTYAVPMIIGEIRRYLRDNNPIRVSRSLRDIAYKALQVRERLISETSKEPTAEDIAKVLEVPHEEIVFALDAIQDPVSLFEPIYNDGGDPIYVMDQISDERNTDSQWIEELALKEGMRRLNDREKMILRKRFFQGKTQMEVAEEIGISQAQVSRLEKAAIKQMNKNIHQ

T6: GST-σ^GN45A (Bacillus subtilis, UniProt P19940 1-260, N45A)
T6 construct: RNA polymerase sigma-G factor of Bacillus subtilis; coding region of sigGN45A amplified from pJS4 and cloned into pGex4T-3; not shown: GST, N-terminal, kept
T6 sequence (looked up): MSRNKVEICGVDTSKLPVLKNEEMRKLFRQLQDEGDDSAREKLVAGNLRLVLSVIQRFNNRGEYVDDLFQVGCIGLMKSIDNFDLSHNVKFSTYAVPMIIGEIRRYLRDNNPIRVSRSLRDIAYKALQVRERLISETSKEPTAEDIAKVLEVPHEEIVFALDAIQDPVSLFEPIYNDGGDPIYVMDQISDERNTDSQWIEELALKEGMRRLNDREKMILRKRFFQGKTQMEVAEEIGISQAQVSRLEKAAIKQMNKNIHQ

T7: GST-σ^GN45E (Bacillus subtilis) (UniProt P19940)
T7 sequence: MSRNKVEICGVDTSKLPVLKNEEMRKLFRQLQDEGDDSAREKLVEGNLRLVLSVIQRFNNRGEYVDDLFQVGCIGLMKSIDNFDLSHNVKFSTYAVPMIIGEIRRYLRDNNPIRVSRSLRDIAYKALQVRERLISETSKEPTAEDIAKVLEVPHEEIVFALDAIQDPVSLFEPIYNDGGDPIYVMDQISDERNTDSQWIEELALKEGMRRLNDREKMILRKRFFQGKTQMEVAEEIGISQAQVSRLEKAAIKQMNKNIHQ


How the values were obtained:
[1] = biological target: T1, σ^F fused to the GAL4 binding domain (Bacillus subtilis); assay: two-hybrid; GAL4-based yeast two-hybrid; CsfB fused to the activation domain (pACT2), sigma factors fused to the binding domain (pAS2-1); lacZ reporter, colony lift with X-Gal and liquid assay with ONPG
[2] = biological target: T2, σ^FE39N fused to the GAL4 binding domain (Bacillus subtilis); assay: as above
[3] = biological target: T3, σ^G fused to the GAL4 binding domain (Bacillus subtilis); assay: as above
[4] = biological target: T4, σ^GN45A fused to the GAL4 binding domain (Bacillus subtilis); assay: as above
GST-σ^G = biological target: T5, GST-σ^G; assay: pull-down; GST or GST-σ^G fusions on glutathione Sepharose beads; soluble extract of B. subtilis AH6608 (CsfB-GFP) 2 h after the onset of sporulation; 30 min at room temperature; washed three times in 200 mM NaCl, 10 mM Tris-HCl pH 8.0, 10% glycerol; immunoblot with anti-GFP and anti-SpoIIAB; densitometry, average of three experiments; only the target purified
GST-σ^GN45A = biological target: T6, GST-σ^GN45A; assay: as above
[5] = biological target: T7, GST-σ^GN45E (Bacillus subtilis); assay: as above

binding [1] | binding [2] | binding [3] | binding [4] | binding (GST-σ^G) | binding (GST-σ^GN45A) | binding [5] | Binder
no binding | binds | binds | binds | – | – | – | CsfB fused to the GAL4 activation domain (protein, UniProt P37534 1-64) MDETVKLNHTCVICDQEKNRGIHLYTKFICLDCERKVISTSTSDPDYAFYVKKLKSIHTPPLYS
– | – | – | – | binds | binds | binds | SpoIIAB (protein, UniProt P10728 1-146) MKNEMHLEFSALSQNESFARVTVASFIAQLDPTMDELTEIKTVVSEAVTNAIIHGYEENCEGKVYISVTLEDHVVYMTIRDEGLGITDLEEARQPLFTTKPELERSGMGFTIMENFMDDVSIDSSPEMGTTIRLTKHLSKSKALCN
– | – | – | – | binds | – | – | CsfB-GFP fusion (natural protein, Bacillus subtilis, UniProt P37534 1-64, looked up, anti-sigma-G factor CsfB (Gin) of Bacillus subtilis, functional fusion to GFP; The construction of the csfB-gfp fusion stands in Text S1; source: B. subtilis AH6608 (csfB::km ΔsigG ΔamyE::csfB-gfp), soluble extract 2 h after the onset of sporulation in DSM) MDETVKLNHTCVICDQEKNRGIHLYTKFICLDCERKVISTSTSDPDYAFYVKKLKSIHTPPLYS
